Results taken from PubChem BioAssay AID894 (National Center for Advancing Translational Sciences (NCATS), 2007).
Among all 150,000 compounds or so, about 6,500 (4.3%) were called active. The inconclusive results got no clear call from the source; some entries with a clear call stand among them for comparison. The call rests on the fitted dose curve; in most records, active means well fitted inhibition curve with a large enough effect (not every such curve was filed as active); inconclusive means small, poorly fitted or top-dose-only effect, or another doubt; inactive means no such curve, though single readings can be large or run the other way. Potencies of inconclusive entries are left out as doubtful fits.

molecular target: 15-hydroxyprostaglandin dehydrogenase [NAD(+)] (Homo sapiens) (UniProt P15428); assay: qHTS Assay for Inhibitors of HPGD (15-Hydroxyprostaglandin Dehydrogenase); details: purified HPGD, NADH fluorescence kinetic, PGE2 substrate; activity change, negative = inhibition: hits give low values
Chain of UniProt P15428 (P15428 whole entry, looked up): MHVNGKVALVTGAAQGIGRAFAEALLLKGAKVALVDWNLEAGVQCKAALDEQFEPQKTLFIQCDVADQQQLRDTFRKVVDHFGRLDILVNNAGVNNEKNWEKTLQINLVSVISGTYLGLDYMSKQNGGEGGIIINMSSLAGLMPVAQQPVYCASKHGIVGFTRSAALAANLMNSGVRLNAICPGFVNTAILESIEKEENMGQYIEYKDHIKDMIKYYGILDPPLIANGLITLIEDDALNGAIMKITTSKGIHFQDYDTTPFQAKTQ
Summary of the method: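 20 nM HPGD preincubated 15 min at room temperature with compound in 50 mM Tris-HCl pH 8, 0.01% Tween 20. Started with 1 mM NAD+ and 30 uM prostaglandin E2; NADH fluorescence (360/450 nm) read 5 times over 30-s intervals, last minus first.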
On the % scale 0 is the no-effect control and ±100 the full control effect; potency means the concentration at half of the fitted maximal effect; tags describe the fitted curve by direction and shape.

| Structure (SMILES) | Potency | activity change, negative = inhibition |
| --- | --- | --- |
| CNC(=S)N1CCN(c2c(F)cc3c(=O)c(C(=O)O)cn(C4CC4)c3c2OC)CC1C (stereo not given) | inconclusive [inhibitor, partial curve] | – |
| O=c1c2cc(O)c(O)cc2oc2cc(O)c(C3OC(CO)C(O)C(O)C3O)c(O)c12 (stereo not given) | inconclusive [inhibitor, partial curve] | – |
| O=C(c1ccco1)N1CCN(c2ncnc3sc4c(c23)CCC4)CC1 | active: 31.6 µM | – |
| Nc1nc(=S)c2[nH]cnc2[nH]1 | active: 35.5 µM | – |
| Cc1cc(C)cc(OCC(=O)Nc2cccc(-c3nc4ncccc4o3)c2)c1 | inconclusive [inhibitor, partial curve] | – |
| Cc1noc(C)c1C(c1ccccc1)c1ccccc1 | – | inactive: -13% |
| N#Cc1c(NC(=O)/C=C/c2ccco2)sc2c1CCCC2 | inconclusive [inhibitor, partial curve, poor fit] | – |
| Cc1ccc(-c2cc(-c3ccc(Cl)cc3)c(C#N)c(N)n2)o1 | inconclusive [inhibitor, partial curve] | – |
| CCOC(=O)N1CCN(CCC(=O)Nc2ccc(OC)cc2)CC1 | – | inactive: -13.1% |
| CCOC(=O)N1CCN(C(=O)c2cn(CC(C)C)c(=O)c3c2c2ccccc2n3C)CC1 | inconclusive [inhibitor, partial curve] | – |
| CCOC(=O)c1sc(NC(=O)c2cc(-c3cccc(O)c3)on2)c(C(=O)OCC)c1C | inconclusive [inhibitor, partial curve] | – |
| COC(=O)c1ccc2c(=O)n(CCCCCC(=O)NCc3ccccn3)c(=O)[nH]c2c1 | inconclusive [inhibitor, partial curve] | – |
| O=C1c2ccccc2C(=O)c2c1ccc(O)c2O | active: 28.2 µM | – |
| Cc1nc2c(sc3nc4c(cc32)COC(C)(C)C4)c(=O)n1Cc1ccccc1 | – | inactive: -15.5% |
| COc1cc(C(C)=O)ccc1Oc1ncnc2c1cnn2-c1cccc(Cl)c1 | – | inactive: -24.8% |
| Cc1ccc(NC(=S)N/C(=N/S(=O)(=O)c2ccccc2)c2ccccc2)cc1 | inconclusive [inhibitor, single point] | – |
| CCOC(=O)c1c(C)[nH]c(C)c1C(=O)CSc1nc2ccccc2c(=O)n1-c1ccc(Cl)cc1 | – | inactive: -6.3% |
| COc1ccc2[nH]c(-c3ccc(F)cc3F)cc(=O)c2c1 | – | inactive: -21.4% |
| OC(c1cccc(OCc2ccccc2)c1)c1nnc(-c2ccccc2)o1 (stereo not given) | inconclusive [inhibitor, partial curve] | – |
| COc1cccc2[nH]c3c(Cl)ncnc3c12 | inconclusive [inhibitor, partial curve] | – |
| CCOC(=O)c1c(NC(=O)c2ccccc2C)sc2c1CC(C)(C)OC2 | inconclusive [inhibitor, partial curve] | – |
| COP(=O)(OC)c1nc(-c2ccccc2)oc1N1CCOCC1 | inconclusive [inhibitor, partial curve] | – |
| N#C/C(=C\c1c(N2CCOCC2)nc2ccccn2c1=O)S(=O)(=O)c1ccccc1 | active: 2 µM | – |
| COc1cc2c(cc1OC)-c1cc(Nc3ccc4c(c3)OCCO4)nc(=O)n1CC2 | inconclusive [inhibitor, partial curve] | – |

| Structure (SMILES) | Potency | activity change, negative = inhibition |
| --- | --- | --- |
| COc1ccc(-c2ccc(C#N)c(OC(=O)c3c(Cl)cccc3Cl)n2)cc1 | inconclusive [inhibitor, partial curve] | – |
| Cn1cccc1CC(=O)N/N=C/c1cccc2ccccc12 | active: 15.8 µM | – |
| O=C1NC(=S)S/C1=C\c1ccc(SCc2ccco2)o1 | active: 7.08 µM | – |
| COc1cccc(Cn2c(Oc3cccc(C)c3)nc3c2c(=O)n(C)c(=O)n3C)c1 | – | inactive: -4.13% |
| CC(=O)c1ccc(NC(=O)COC(=O)c2ccccc2Sc2ccccc2C#N)cc1 | inconclusive [inhibitor, partial curve] | – |
| CCCOC(=O)c1ccc(Oc2coc3c(CN(CC)CC)c(O)ccc3c2=O)cc1 | inconclusive [inhibitor, partial curve] | – |
| O=C1CN(C(=O)CCCc2c[nH]c3ccccc23)c2ccccc2N1 | inconclusive [inhibitor, partial curve] | – |
| Cc1cc(NC(=O)/C=C/c2cccc(Cl)c2)n(-c2nc3ccccc3[nH]2)n1 | inconclusive [inhibitor, single point] | – |
| COc1ccc2[nH]c(=O)c(CN(C(=O)NC3CCCCC3)C3CCCCC3)cc2c1 | inconclusive [inhibitor, single point] | – |
| COc1ccccc1CN1CCCC2(CCN(C(=O)c3cc(C(F)(F)F)cc(C(F)(F)F)c3)CC2)C1 | – | inactive: -3.48% |
| CCN(CC)C(=O)CC(c1ccccc1)c1ccco1 (stereo not given) | active: 15.8 µM | – |
| COc1ccc(C(=O)Nc2ccc(Cl)c(S(=O)(=O)Nc3ccccc3OC)c2)cc1 | – | inactive: -28.6% |
| CCCNS(=O)(=O)c1ccc(CCC(=O)Nc2ccc3c(c2)OCO3)cc1 | – | inactive: 2.06% |
| CCOC(=O)c1[nH]c2ccc(OCC)cc2c1NC(=O)CN1CCC2(CC1)OCCO2 | inconclusive [inhibitor, partial curve] | – |
| COc1ccc(C(C)=O)cc1CSc1nnc(C)s1 | active: 17.8 µM | – |
| O=C(c1ccc(Cl)cc1)N1C2C=CC(C2)C1(C(F)(F)F)C(F)(F)F (stereo not given) | – | inactive: -8.36% |
| N#Cc1nc(-c2ccccc2Cl)oc1NCc1ccco1 | inconclusive [inhibitor, partial curve] | – |
| Cc1cc(Br)c(OCc2ccc(C(=O)N/N=C3\CC4CC=CC34)cc2)c(Br)c1 (stereo not given) | active: 12.6 µM | – |
| CC(C)C[C@H](N)c1nnc(S(=O)(=O)Cc2ccc(F)cc2)o1 | active: 25.1 µM | – |
| O=C(O)c1ccc(N(c2ccccc2)c2ccccc2)cc1 | inconclusive [inhibitor, partial curve] | – |
| COc1ccc(-c2cc(C(=O)Nc3cnn(Cc4ccccc4C)c3)no2)cc1OC | inconclusive [inhibitor, partial curve] | – |
| N#Cc1c(-c2ccco2)cc(-c2ccc(F)cc2)nc1N | inconclusive [inhibitor, partial curve] | – |
| O=C(COC(=O)c1ccc(Br)o1)Nc1nc2ccccc2s1 | – | inactive: -4.4% |
| N#Cc1c(N2CCOCC2)nc(-c2ccco2)c2c1CCCC2 | inconclusive [inhibitor, partial curve] | – |

| Structure (SMILES) | Potency | activity change, negative = inhibition |
| --- | --- | --- |
| Cc1ccc(NC(=S)C2=C(O)c3sccc3N(C)S2(=O)=O)cc1 | inconclusive [inhibitor, single point] | – |
| CCOC(=O)N1CCC(N2Cc3cccc(C(=O)Nc4ccc(CC)cc4)c3C2=O)CC1 | – | inactive: -14% |
| O=C1CSC(c2nn(-c3ccccc3)cc2-c2cc3ccccc3oc2=O)N1Cc1ccco1 (stereo not given) | inconclusive [inhibitor, partial curve] | – |
| CCOC(=O)CSc1nc2ccc(N)cc2s1 | inconclusive [inhibitor, single point] | – |
| CCN(CC)S(=O)(=O)c1ccc2[nH]cc(C(=O)NCCCN3CCCCC3)c(=O)c2c1 | inconclusive [inhibitor, partial curve] | – |
| CCN(Cc1ccccc1)S(=O)(=O)c1ccc2oc(C(=O)O)c(C)c2c1 | inconclusive [inhibitor, partial curve] | – |
| CCN(CC)C(=O)CSc1ncnc2sc(-c3ccccc3)cc12 | inconclusive [inhibitor, single point] | – |
| O=C1c2ccccc2C(=O)N1CSc1ncccn1 | – | inactive: -17.5% |
| CCCCN1C=CC(=C2N=c3cccc([N+](=O)[O-])c3=N2)C=C1 | inconclusive [inhibitor, single point] | – |
| COc1ccc(C(C)=O)cc1CSc1nnc(-c2ccccc2O)n1-c1ccccc1 | inconclusive [inhibitor, partial curve] | – |
| CC(NC(=S)Nc1ccccc1)C1COc2ccccc2O1 (stereo not given) | – | inactive: -1.93% |
| COc1cccc2c1OC(=O)CC2c1ccccc1C (stereo not given) | inconclusive [inhibitor, partial curve] | – |
| COc1ccc(-c2nnc3sc(CCN4C(=O)c5ccccc5C4=O)nn23)cc1 | inconclusive [inhibitor, partial curve, poor fit] | – |
| COc1ccc2cc3cc(C(=O)NCCN4CCN(Cc5ccccc5)CC4)oc3nc2c1 | inconclusive [inhibitor, partial curve] | – |
| COc1ccc(-c2[nH]nc3oc(=O)cc(C)c23)cc1 | inconclusive [inhibitor, partial curve] | – |
| COC(=O)c1ccc(-c2nc(-c3ccc(Br)o3)no2)cc1 | – | inactive: -14% |
| COC(=O)c1onc(-c2c(OC)cc(OC)cc2OC)c1C(=O)OC | – | inactive: -3.93% |
| O=C(O)C(=O)/C(=C\c1ccccc1)c1ccc2ccccc2n1 | inconclusive [inhibitor, partial curve] | – |
| CCCn1cc(S(=O)(=O)CC(=O)N2CCc3ccccc32)c2ccccc21 | inconclusive [inhibitor, single point] | – |
| Oc1ccc(Cl)cc1Cc1cc(Cl)cc(Cc2cc(Cl)ccc2O)c1O | – | inactive: -7% |
| CN(CCc1ccccn1)C(=O)c1nn2c(C(F)(F)F)cc(-c3ccco3)nc2c1Cl | – | inactive: -19.1% |
| CCOC(=O)c1ccccc1NC1c2ccccc2C(=O)N1C1CCN(C(=O)OCC)CC1 (stereo not given) | inconclusive [inhibitor, partial curve] | – |
